{"source": "PubChem BioAssay AID588342", "about": "(National Center for Advancing Translational Sciences (NCATS), 2011)", "note": "In all, about 360,000 compounds went through this assay and about 25,000 (6.9%) were called active. This list was built around the results that the source calls inconclusive (neither active nor inactive); the mix of calls is not that of the screen. Calls follow the shape of the dose curve; as a rule, active = well fitted inhibition curve with a large enough effect; inconclusive = small, poorly fitted or top-dose-only effect; inactive = flat fitted curve, though single readings scatter. Potencies beside an inconclusive call are fits to weak or partial responses and may not hold up. Potency is read from the fitted curve at half-maximal effect; tags tell the direction and shape of the fitted curve.", "data": [{"target": "Luciferin 4-monooxygenase (Photinus pyralis) (UniProt P08659)", "sequence (P08659 whole entry, looked up)": "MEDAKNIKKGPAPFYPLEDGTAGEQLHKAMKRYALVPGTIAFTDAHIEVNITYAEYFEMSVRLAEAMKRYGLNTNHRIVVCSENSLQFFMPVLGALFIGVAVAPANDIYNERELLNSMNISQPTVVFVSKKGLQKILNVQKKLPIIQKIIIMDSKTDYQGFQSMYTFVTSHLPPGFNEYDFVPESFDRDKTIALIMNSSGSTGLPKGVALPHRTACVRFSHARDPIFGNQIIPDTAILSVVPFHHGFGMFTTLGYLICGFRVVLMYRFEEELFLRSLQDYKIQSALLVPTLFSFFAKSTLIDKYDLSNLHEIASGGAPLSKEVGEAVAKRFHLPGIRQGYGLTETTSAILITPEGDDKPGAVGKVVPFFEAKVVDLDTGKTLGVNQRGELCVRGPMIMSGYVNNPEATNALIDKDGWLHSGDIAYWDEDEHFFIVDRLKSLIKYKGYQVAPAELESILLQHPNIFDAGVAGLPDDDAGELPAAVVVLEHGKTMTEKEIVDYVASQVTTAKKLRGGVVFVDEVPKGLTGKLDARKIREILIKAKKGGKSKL", "assay": "qHTS profiling assay for firefly luciferase inhibitor/activator using purifed enzyme and Km concentrations of substrates (counterscreen for miR-21 project); also: nearly all actives have a fitted effect of over 55% in size;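 as to activity change, negative = inhibition: plate controls were vehicle for no effect and reference inhibitor for full effect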", "conditions": "purified FLuc, luminescence inhibition; activity change, negative = inhibition: at 57.5 µM (top of the series)", "outline": "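Purified P. pyralis luciferase, 10 nM final, with Km-level 10 uM D-luciferin and 10 uM ATP in 50 mM Tris acetate pH 7.5, 10 mM Mg acetate, 0.01% Tween-20, 0.05% BSA; 6-point qHTS titration about 60 µM downward; luminescence read.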", "values": [{"smiles": "CN(C)S(=O)(=O)c1cccc(NC(=O)c2ccc(COc3ccccc3)cc2)c1", "Potency": "inconclusive: 37.9 µM [inhibitor, partial curve, poor fit]"}, {"smiles": "COc1ccc(NC(=O)/C=C/c2cc(Br)ccc2OC)cc1", "Potency": "inconclusive: 26.9 µM [inhibitor, single point]"}, {"smiles": "CCOc1cccc2cc(-c3nnc(NCc4ccco4)s3)c(=O)oc12", "Potency": "inconclusive: 7.57 µM [inhibitor, partial curve, poor fit]"}, {"smiles": "CC(=O)Nc1ccc(C(=O)CSc2nnnn2C2CCCC2)cc1", "Potency": "inconclusive: 23.9 µM [inhibitor, single point]"}, {"smiles": "Cc1ccccc1C1=N/C(=C/c2cccnc2)C(=O)O1", "Potency": "active: 8.49 µM"}, {"smiles": "CCN(CC)Cc1cc(O)c(CN(CC)CC)cc1O", "Potency": "inconclusive: 13.5 µM [inhibitor, partial curve, poor fit]"}, {"smiles": "CCCC1=Nc2cc(C(=O)NC3CCCCC3)ccc2Sc2ccc(C)cc21", "activity change, negative = inhibition": "inactive: -11.2%"}, {"smiles": "COC(=O)c1ccc(/C=C2/SC(=S)N(CCC(=O)N3CCOCC3)C2=O)cc1", "Potency": "inconclusive: 7.57 µM [inhibitor, partial curve, poor fit]"}, {"smiles": "O=C(CSc1nnc(NC(=O)c2ccccc2C(=O)O)s1)Nc1ccccc1Cl", "Potency": "inconclusive: 23.9 µM [inhibitor, partial curve]"}, {"smiles": "COc1ccc(C)cc1NC(=O)Cn1cc(S(=O)(=O)N2CCC(C)CC2)c2ccccc2c1=O", "activity change, negative = inhibition": "inactive: 4.02%"}, {"smiles": "COc1c(C(=O)NNC(=O)c2ccccc2)csc1Br", "Potency": "active: 10.7 µM"}, {"smiles": "CCOc1ccc(NC(=O)c2c(NCc3cc(OC)c(OC)cc3OC)sc3c2CCCC3)cc1", "Potency": "inconclusive: 30.1 µM [inhibitor, partial curve, poor fit]"}, {"smiles": "Nc1c(Cl)ncnc1N/N=C/c1ccccn1", "Potency": "inconclusive: 21.3 µM [inhibitor, single point]"}, {"smiles": "O=C(NN=C1CCC(=NNC(=O)c2ccccn2)CC1)c1ccccn1", "Potency": "inconclusive: 23.9 µM [inhibitor, partial curve, poor fit]"}, {"smiles": "COc1cccc(/C=N/NC(=O)CNC(=O)COc2ccccc2)c1O", "Potency": "inconclusive: 37.9 µM [inhibitor, single point]"}, {"smiles": "O=C(COc1ccc(Br)cc1)Nc1ccc(S(=O)(=O)Nc2ccccn2)cc1", "Potency": "inconclusive: 37.9 µM [inhibitor, partial curve, poor fit]"}, {"smiles": "COCc1cc(C)nc2sc(C(=O)Nc3ccccc3Br)c(N)c12", "Potency": "active: 8.49 µM"}, {"smiles": "O=c1cc(/C=C/c2c(F)cccc2Cl)[nH]c2ccccc12", "Potency": "inconclusive: 2.39 µM [inhibitor, partial curve, poor fit]"}, {"smiles": "COc1cccc(NC(=S)NCc2cccs2)c1", "Potency": "inconclusive: 30.1 µM [inhibitor, partial curve, poor fit]"}, {"smiles": "Cc1csc2nc(NC(=O)c3ccccc3)sc(=O)c12", "Potency": "active: 4.26 µM"}, {"smiles": "CCCCCCNC(=O)c1cc(-c2ccco2)nc2ccccc12", "Potency": "inconclusive: 4.78 µM [inhibitor, partial curve, poor fit]"}, {"smiles": "COc1ccccc1N1C(=O)c2ccc(C(=O)Nc3ccccc3O)cc2C1=O", "Potency": "inconclusive: 7.57 µM [inhibitor, partial curve]"}, {"smiles": "O=C(Nc1ccc(Cl)cc1)Nc1nnc(SCc2ccccc2)s1", "Potency": "inconclusive: 9.53 µM [inhibitor, partial curve, poor fit]"}, {"smiles": "COCC(=O)Nc1ccc(N(C)C)cc1", "Potency": "inconclusive: 21.3 µM [inhibitor, partial curve, poor fit]"}, {"smiles": "O=C(Nc1nc2ccccc2n1CCN1CCOCC1)c1ccccc1", "activity change, negative = inhibition": "inactive: -11.6%"}, {"smiles": "COc1cc(C2CC(=O)c3c([nH]c(C(=O)OC4CCCC4)c3C)C2)cc(OC)c1OC", "note": "(centres undefined)", "activity change, negative = inhibition": "inactive: -14.8%"}, {"smiles": "N#Cc1ccc(NC(=O)c2cccs2)nc1", "Potency": "inconclusive: 37.9 µM [inhibitor, partial curve, poor fit]"}, {"smiles": "O=C(Nc1ccc(Cl)c(Cl)c1)Nc1ccccc1O", "Potency": "active: 6.01 µM"}, {"smiles": "Clc1ccc(-c2cn3cc(Cc4ccccc4)sc3n2)cc1", "Potency": "active: 0.239 µM"}, {"smiles": "O=C(/C=C/c1cn(-c2ccccc2)nc1-c1cccs1)NCCN1CCOCC1", "Potency": "active: 19 µM"}, {"smiles": "COc1ccc(C(=O)Nc2ccc(S(=O)(=O)Nc3ncccn3)cc2)cc1OC", "activity change, negative = inhibition": "inactive: 4.52%"}, {"smiles": "CC1CCCCN1C(=O)COC(=O)CNC(=O)c1sc2ccccc2c1Cl", "note": "(centres undefined)", "Potency": "inconclusive: 23.9 µM [inhibitor, single point]"}, {"smiles": "COC(=O)c1ccc(-n2c(C)cc(C(=O)COC(=O)CC3Sc4ccccc4NC3=O)c2C)cc1", "note": "(centres undefined)", "Potency": "inconclusive: 26.9 µM [inhibitor, partial curve, poor fit]"}, {"smiles": "Cc1cc2nc(CSc3ccccc3)cc(=O)n2[nH]1", "Potency": "inconclusive: 26.9 µM [inhibitor, single point]"}, {"smiles": "Cc1cc(N2CCOCC2)ccc1/C=C1\\SC(=O)N(C(C)C)C1=O", "Potency": "active: 3.79 µM"}, {"smiles": "COc1cccc(Cn2c(=O)n(Cc3ccccc3)c(=O)c3c2c2cc(OC)ccc2n3C)c1", "activity change, negative = inhibition": "inactive: -1.83%"}, {"smiles": "CN(c1ccccc1)c1nc(N)c([N+](=O)[O-])c(N2CCCCC2)n1", "Potency": "inconclusive: 37.9 µM [inhibitor, partial curve, poor fit]"}, {"smiles": "O=C(Nc1nnc(SCc2ccccc2)s1)c1cccc([N+](=O)[O-])c1", "Potency": "inconclusive: 37.9 µM [inhibitor, single point]"}, {"smiles": "COc1ccc(/C=C/C(=O)c2cc(Cl)cc(Cl)c2O)c(OC)c1", "Potency": "inconclusive: 37.9 µM [inhibitor, partial curve, poor fit]"}, {"smiles": "Cc1ccc2c(c1)C(c1ccncc1)=NNC(c1ccccc1)=N2", "Potency": "active: 16.9 µM"}, {"smiles": "COCC(=O)N1CCC(Oc2ccc(C(=O)NCCCC3CCCC3)cc2)CC1", "Potency": "inconclusive: 42.6 µM [inhibitor, partial curve, poor fit]"}, {"smiles": "CCOC(=O)Oc1ccc(/C=C2\\N=C(C)OC2=O)cc1", "Potency": "inconclusive: 26.9 µM [inhibitor, single point]"}, {"smiles": "Cc1ccc(NC(=S)NNC(=O)c2ccccc2O)c(C)c1", "Potency": "inconclusive: 19 µM [inhibitor, partial curve]"}, {"smiles": "C/C(=N\\NC(=O)CSc1ncccn1)c1ccc2c(c1)OCCO2", "Potency": "inconclusive: 26.9 µM [inhibitor, partial curve, poor fit]"}]}]}
